Read counts are not given, so values of variants with three or more changes are uncertain.

The values below come from the RNAGym collection of RNA variant scans (doi:10.7554/elife.90254).

B1: LINE1-full (parent)
chain: UACGUAGGUGGUUUUCCCCUGAUAGUGCUAAGGGGGCCUGGAAGUUUGGACUGGGCAGAGCUCAACACAGCGUGGCAAAGUGGCUGUGGCUAGACUGCCUCUCUGGAUUCCUCGUCACUCAGCAGGGCAUCUCUGAGAGAAAUGCC

In this data set the parent is B1. Nature of the data set: self-cleavage, relative activity (ratio to wild type); higher = more cleavage; in vitro, sequencing; the parent is a self-cleaving ribozyme.
With A30G A64U U132C, the self-cleavage came to 0.33.
Consider G32A A107G G137U, for which the self-cleavage was determined as 0.
The same measure for A30G A31G U45C A121G: 0.77; for G32A A43G U85C: 0.11; for A30C A57G A79G U85C: 0.
On to U29C U47C A69G U87A U132C U134A, for which the self-cleavage was found to be 0.77.
The same measure for A30C U39G A42G U73A U115A: 1.37; for A31U U46C G122U: 1.11; for A30G U62G C63U U85C A124G: 0.12.
Turning to A31C A57U A107G, the self-cleavage was found to be 0.49.
The same measure for A30G U39C G93A U115A: 0.07.
The same measure for G32A A77G A124G: 1.91; for U29G C113A A124G A136G: 1.11; for A30G U85A U87C: 0.27.
The value for G32A U96C U130C was 0.15; that for A30U G55A A67G was 0.02; that for A30G A43G U45A U132C G137A was 0.
Regarding A30U A94G U115C A138G, the self-cleavage was 0.
Take A31U A43G U87C A136G: the self-cleavage came out at 1.31.
The same measure for G32A A59U U85C C116U A141G: 0.1.
The same measure for G32A A57U C66A: 0.08.
The same measure for G32A U47C A136C: 1.67.
Take A30G U46A G82A: the self-cleavage stood at 1.56.
The value for G32A A64G U108C was 0.
On to A30G U45C A69U A142G, for which the self-cleavage was found to be 0.28.
The value for A31G A59G A121G was 0.95; that for A30U U73C U87A was 0.21; that for G32A A43G C56U U130C was 0.14.
The same measure for U29G G49A U52A U62A A65G A69G U134G: 0; for A31G U39A A121G A141G: 2.6; for U29C U39C U87A: 0.04.
In the case of A31G A92G A124G, the self-cleavage turned out to be 0.
With G33A U46C C66U A69G C103U U134C, the self-cleavage was 0.08.
The value for A30G U39C G41U U47A A67G was 0.65; that for A31U U39C U108C U132C was 1.29.
The same measure for G32A A65G U108C: 0.1; for A30G U39A U132C: 1.31; for A31U A43G U81G A138G: 1.21.
The same measure for A31U U39A U87A: 0.14.
Regarding G32C G53U U81A, the self-cleavage is 1.15.
The value for A30U U47C C101U was 1.09; that for G33A U47C U134C was 1.09.
The same measure for G33A G88A A107G A117G: 0.1.
The same measure for A30G A43U A50G: 0.63; for A31U A59U A65G U109C A142U: 0; for A30U C56U U96C U109C: 0.12.
As for G32C C123U U143C, the self-cleavage was determined as 0.9.
In the case of U29C G53A A77U, the self-cleavage was found to be 0.43.
The same measure for G32U G35A A129U: 0.92.
The value for A31U U96C C99U A129G was 0.15; that for U29C U100A U130C was 1.55; that for G32A A59G A142G was 0.
The value for A30G A124U C145U was 0.93.
Consider A30U A57G U132C, for which the self-cleavage was determined as 0.78.
The value for U29C U119C A141G was 0; that for A31G A65G U81A was 0.15.
The same measure for G32A A57G G89A: 0; for G32U G49A U119C A129G: 1.23; for G33A U47C A59U A124G: 0.59.
As for A31G A57U A67G, the self-cleavage was 0.25.
The same measure for A31G A43G A129G: 2.3; for U29C U47A U119C: 1.64; for A31C A43G A64G U91C: 0.
The same measure for A30U A59G A69U A124G U134A: 0.18.
The value for A31G U47A A78U U108G A124U was 1.29; that for A31G U46C U47A was 1.29.
In the case of A31U G36C U39C A136U, the self-cleavage is 1.2.
The same measure for A31U G83A A136G: 0.82; for A31U U119C A136G: 2.11; for A30G U52A A64C A77U U115C A138G: 0.41.
For the variant A31U U62C U96C, the self-cleavage was determined as 0.
The same measure for A30G G35A A59G A79G: 0; for A30U A50G U85C: 0.
The value for U29C U45C U81A was 1.37; that for A31G U73A U102G A117U A124G was 0; that for G32A A107G U108C was 0.77.
The same measure for A30U U39A A42G U62C A65C: 0.
A30G U45C A142U: the self-cleavage was 1.21.
The value for U29C G54U G126A G144A was 1.02; that for A31U A79G U115A A141G was 1.04; that for G32C A92G U130C U143C was 0.22.
The same measure for A31G U73C U96G: 0; for A30U A65U C111U: 0.23; for A30U A67G A79U: 0.56.
The same measure for A31U G32A C120U A136G: 1.11; for U29G A50U U102A U115C U130C: 1.84; for A31U A43G U96C A141G: 0.11.
In the case of U29C U39A A94U U104C, the self-cleavage was determined as 0.25.
Turning to A31G A64U G83A U87C, the self-cleavage was 0.18.
With A30G G41A A65G, the self-cleavage worked out at 0.18.
In the case of A31G U62C A78G U91C, the self-cleavage stood at 0.
The same measure for A30U A79G A107G: 1.62.
The same measure for A31U A59G C113U A117U U119C: 0.13.
The same measure for G32A U39C U73A U119G: 0.79; for A30U A67C U104A: 0.1.
For A31G G34A G106A U112C, the self-cleavage turned out to be 1.38.
The value for U29C U85A U108C was 0.23; that for A30G U62C U96C A142G was 0.
The value for G33C U39C U73C A140G was 0; that for A31G G35U U112C was 0.86.
As for A30G U45C A69G, the self-cleavage is 0.57.
The value for A30G A64U U112C A117G A142G was 0; that for A31G G55C A107U U112C C128A was 0.07; that for A30U U102C U132C was 1.6.
The value for A30G A121U A138U was 1.06; that for A31U C123A U143C was 1.01.
The same measure for A30G A50U A92U G114A: 0.68; for U29C U47A A136G: 1.67; for G32C U47C G55A A142G: 0.54.
Regarding G33A G49U A79G U143C, the self-cleavage stood at 0.91.
A31U U39C A78G: the self-cleavage stood at 0.53.
The value for A30G G32A A78G U85C was 0.26.
The value for A30G G48A G83U was 0.72; that for G32A U73C U81A was 2.53; that for A31G A59G A69G U108C G126A was 0.38.
The value for G32U A42G A69U A141G was 0.12.
In the case of A31G A79G G122A A136G G137A, the self-cleavage was 0.29.
The value for G32A U62C U132C A138G was 0.06; that for G33A G41A A64U was 0.24; that for A30G A42G U112C was 1.53.
The value for A30U G34A A42G A67G A77U G122A was 0.31; that for G32A U104G A142U was 0.72.
The value for G32U U39C A79G U143A was 2.02; that for U29C U62C A124U was 0.1.
For A30G U52A A141G, the self-cleavage stood at 1.16.
G33A A69U A79G U132C A138G: the self-cleavage worked out at 0.
Turning to U29C U46A G58A, the self-cleavage amounted to 0.
The value for A30G A65G A140G U143A was 0; that for G32A C38U A67G U115C was 0.38.
Turning to A30G G32A U81A A107G U112C A138U, the self-cleavage amounted to 0.
The same measure for A31G G35A G36U U109C: 1.55; for A30G U46A A94G: 0.11; for A30U A43G U46A U130C: 1.12.
The same measure for G32A U39A U62C A107G: 0.18.
The value for A31G A43G A92G C113U was 0.14.
As to A30G A94C A124G, the self-cleavage was determined as 0.61.
The value for A30U A65G U134A was 0.04; that for A31U G74A C120A was 0.98; that for A31U C38U A42U U85C U91C was 0.26.
As to G32A U87A C111U, the self-cleavage is 0.02.
The value for G33C A79G A141U was 1.06; that for A31U U112C A129G was 1.4; that for A31U A77G A79G U87A was 0.32.
Regarding A30G A64U U100C, the self-cleavage turned out to be 0.57.
The same measure for G32A A50G U85C U87C U132C A136G: 0.
The same measure for A31G U47C U87C: 0.63.
The value for G32A A57U U73A U102C A141G was 0.06; that for A31U A79G U112A was 1.11; that for A30U U45C U52A U62C A69U A142U was 0.06.
In the case of A31U C101U U119C, the self-cleavage worked out at 0.97.
The same measure for A31G U39C A64U: 0.42.
The same measure for U29C U45A U96A: 0.09; for A31G A94G U100A U132C: 0.
The same measure for A31C U73G A141G: 0; for A30U U47A C145G: 0.65; for A31U U96A A121U: 0.09.
In the case of A31U A64U A77U A124G, the self-cleavage was 0.2.
The same measure for A30G G58A A64G A117G: 0.79; for A31C A117G U130C: 0.
The value for U29C U45C U73A G88A U130C was 0.05; that for A31G A65G C98U U102A was 0.
The same measure for A30U G34A A50G: 1.12.
Take A31G U47C U62C U85A: the self-cleavage amounted to 0.17.
The same measure for G33A A64G U134C: 0.18; for U29C U109C A117G: 1.53.
The same measure for A31U U52C A78U U100C: 2.76.
The same measure for U29C U45C A79G: 1.15.
